In the RNAGym collection of RNA variant scans (doi:10.1073/pnas.2313332121):
This sample is rich in variants without activity.

B1: TPR 5TU (parent)
chain: GGAUCUUCUCGAUCUAACAAAAAAGACAAAUCUGCCACAAAGCUUGAGAGCAUCUUCGGAUGCAGAGGCGGCAGCCUUCGGUGGCGCGAUAGCGCCAACGUUCUCAACUAUGACACGCAAAACGCGUGCUCCGUUGAAUGGAGUUUAUCAUG

Variants of: B1
Assay: polymerase ribozyme fitness, log enrichment relative to wild type (log ratio); higher = more active; in vitro selection for triplet polymerase activity
Method in brief: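 A heterodimeric triplet polymerase ribozyme had each of its subunits mutagenized by PCR into a library, which was transcribed. One round of in vitro selection, done in triplicate, annealed each library with a biotinylated primer, its partner subunit and triplets, then incubated it frozen at −7 °C before gel excision of extended constructs, streptavidin-bead capture and RT-PCR. Fitness is the logarithm of genotype enrichment relative to wild-type enrichment, based on Illumina sequencing of inputs and outputs and inverse-variance-weighted replicate averages. A base-2 logarithm is used, and genotypes were kept only with ≥10 input reads and ≥1 read per output.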

Variant	polymerase ribozyme fitness (log ratio)
A49G G84A A115U G152U	≤ -4.2
G48A A97G C108U	≤ -4.2
G48C A49G G83U	≤ -4.2
G48U C57U G84C C93U A150U G152A	≤ -4.2
G48A C75U G88A C99G	≤ -4.2
G48C U53C G136U	-3.16
A49U G83U C95G A120G G141A U148C	≤ -4.2
G48U U77C C79G G143U	≤ -4.2
G48A A60G U61A C103G C129A C149G	≤ -4.2
A49U A89G C93G A137U	≤ -4.2
G48C U77A C85A G100A C103G C125A	≤ -4.2
A49C C75U C76G U90G A91U C103A C114G	≤ -4.2
G48C U77G U144A	≤ -4.2
A49C C123G G126A	≤ -4.2
G48A G50C U55A C85G	≤ -4.2
A49G U61A G65A G70C C85G	≤ -4.2
A49C G65U G84U C96U A121U C125G	≤ -4.2
A49G U56A A60C G81A G128C U146G	≤ -4.2
G48A G68A G88A G92A	≤ -4.2
A49C C54A G74C C99G U135G	≤ -4.2
G48A G94A U101G A120G	≤ -4.2

Variant	polymerase ribozyme fitness (log ratio)
G48C A60C G84U C125U	≤ -4.2
A49C A107G U151C	≤ -4.2
A49C C87A C99U G117U C118U A142U	≤ -4.2
G48C G58U C93A C99A C116A	≤ -4.2
G48U G59U	0.371
A49U C57A A110U C118U A138G	≤ -4.2
G48U C54U U77G C85A G86A C114U	≤ -4.2
G48C C105U C118U G143U	≤ -4.2
A49C C76A C93G	≤ -4.2
A49G G81A C87G U104G A138C	≤ -4.2
A49U U53G C57A U77A C85A C108A	≤ -4.2
G48C C79A A142U	≤ -4.2
G48C U55C A66G C85U U101A	≤ -4.2
A49C A97G	≤ -4.2
G48A C85G C125G	-4.1
G48C C63G G92A C96G C105G C108U	≤ -4.2
A49C G141U	-3.13
A49C C118A C149G	≤ -4.2
G48A C96A G100U	≤ -4.2
A49C A122U C132G	≤ -4.2
G48C C99U C105G	≤ -4.2

Variant	polymerase ribozyme fitness (log ratio)
A49C A52U	≤ -4.2
A49C A52G	≤ -4.2
A49C A52G G83C A119G A121U	≤ -4.2
A49G C51A G94A G124U	-3.32
G48U U78A C93A U139G	≤ -4.2
A49C C54U U56A C63A G70C C87U A98U	≤ -4.2
A49C U53A U56A G88C A113U A142C	≤ -4.2
A49G U56A A66C G68C G81C C95A	≤ -4.2
A49C C99G A142G	≤ -4.2
A49C C85G G88A A97G C103G A106G A142G	≤ -4.2
A49C G50A C54U C96A G136A	≤ -4.2
G48A G62A G68C U78G C87A A91U A98U	≤ -4.2
A49C G83C C85G A89G U135A	≤ -4.2
A49C U55A G86A C99G A142U	≤ -4.2
A49C A52U A60G G94A A97G	-3.63
A49U C69U	-1.86
G48C C85A G141C	≤ -4.2
G48A C51A U56A G59U G68C G94U	≤ -4.2
A49U A73U C131G U148C	≤ -4.2
A49C C85A C105A A147C	≤ -4.2
G48A U53A C54U C57U C85U U146G	≤ -4.2

Variant	polymerase ribozyme fitness (log ratio)
A49C G83C	≤ -4.2
G48U G50C G84U C96U	≤ -4.2
A49G U56A G81C U82G C93U A122C	≤ -4.2
A49G A52C U61A A91C	≤ -4.2
A49C C118U	≤ -4.2
G48C A73U U101C U104A A115G G124U	≤ -4.2
G48A U77G G88A A106G	≤ -4.2
G48A G84C G100C	≤ -4.2
G48U G94A C95A C96G U134G	≤ -4.2
G48U U53A G67C G71U C85U A91C C125U	≤ -4.2
A49C A66U	≤ -4.2
A49C A66G	≤ -4.2
A49C A66C	≤ -4.2
A49C G70A C96U U148G	≤ -4.2
A49U U78A G83C G126U	≤ -4.2
A49U A52C C57A C93A	≤ -4.2
G48A C79A C85G A110U G124A	≤ -4.2
A49U C57U C93G C103G U144C	≤ -4.2
G48C G71U G86A C96A C108U	≤ -4.2
A49C G50C C57U G68U G143A	≤ -4.2
